Measured values reported in the supplement of paper PMC10369915.
This is one part of the list. No stated cut-off is given here; in the data, active = 3.2 or more and inactive = the rest. Only a few entries rise above the background.

Biological target: SHP2 C-SH2 domain E139D
Assay: enrichment score (SH2-bound / input frequency) (ratio); bacterial display of known human phosphotyrosine sites (pTyr-Var adds point mutants) read by sequencing; higher = stronger binding; tyrosines were phosphorylated by kinases first
Conditions: peptide library: pTyr-Var
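Further: displayed peptides selected on beads carrying the immobilized SH2 domain, with library peptides lacking any tyrosine serving as negative controls.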

Enrichment score, inactive:
PLGVLYKVKVF [PTS_Y128_V124L_YF] 0.812
PVGVLYKVKVF [PTS_Y128_YF] 1.45
IVEYAYNDKAI [PUM3_Y259] 0.842
IVEYAYNDKAV [PUM3_Y259_I264V] 1.01
IVEFAYNDKAV [PUM3_Y259_I264V_YF] 0.678
ENRKYYMDLKE [PURA_Y156] 0.777
ENRKFYMDLKE [PURA_Y156_YF] 1.15
HTLIKYTDGDQ [PUS7L_Y94] 1.43
HTLMKYTDGDQ [PUS7L_Y94_I92M] 0.81
ISRVLYPNDNF [PYGM_Y281] 1.34
TGILLYGLASR [QARS1_Y57] 0.942
RRVLVYGDRGA [QDPR_Y16_G18D] 0.358
RRVPVYGGRGA [QDPR_Y16_L14P] 0.249
AASHRYDLGGL [QPRT_Y162] 0.78
TTPYNYSYIFK [RAB14_Y8_A4T] 0.785
TAPFNYSFIFK [RAB14_Y8_YF] 0.681
SFLFHYADDSF [RAB3C_Y50_R49H] 1.91
SLMNQYVNKKF [RAB7A_Y28] 0.708

Biological target: SHP2 C-SH2 domain wild-type
Assay: as above
Conditions: peptide library: pTyr-Var

Enrichment score, inactive:
PLGVLYKVKVF [PTS_Y128_V124L_YF] 1.18
PVGVLYKVKVF [PTS_Y128_YF] 1.48
IVEYAYNDKAI [PUM3_Y259] 0.973
IVEYAYNDKAV [PUM3_Y259_I264V] 0.889
IVEFAYNDKAV [PUM3_Y259_I264V_YF] 0.598
ENRKYYMDLKE [PURA_Y156] 0.91
ENRKFYMDLKE [PURA_Y156_YF] 0.927
HTLIKYTDGDQ [PUS7L_Y94] 1.31
HTLMKYTDGDQ [PUS7L_Y94_I92M] 0.823
ISRVLYPNDNF [PYGM_Y281] 1.04
TGILLYGLASR [QARS1_Y57] 0.857
RRVLVYGDRGA [QDPR_Y16_G18D] 0.235
RRVPVYGGRGA [QDPR_Y16_L14P] 0.28
AASHRYDLGGL [QPRT_Y162] 0.794
TTPYNYSYIFK [RAB14_Y8_A4T] 1.37
TAPFNYSFIFK [RAB14_Y8_YF] 0.82
SFLFHYADDSF [RAB3C_Y50_R49H] 1.85
SLMNQYVNKKF [RAB7A_Y28] 0.596

Biological target: SHP2 N-SH2 domain L43F
Assay: as above
Conditions: peptide library: pTyr-Var

Enrichment score, inactive:
PLGVLYKVKVF [PTS_Y128_V124L_YF] 1.05
PVGVLYKVKVF [PTS_Y128_YF] 1.2
IVEYAYNDKAI [PUM3_Y259] 1.01
IVEYAYNDKAV [PUM3_Y259_I264V] 0.772
IVEFAYNDKAV [PUM3_Y259_I264V_YF] 1.12
ENRKYYMDLKE [PURA_Y156] 0.695
ENRKFYMDLKE [PURA_Y156_YF] 0.932
HTLIKYTDGDQ [PUS7L_Y94] 1.41
HTLMKYTDGDQ [PUS7L_Y94_I92M] 0.813
ISRVLYPNDNF [PYGM_Y281] 1.22
TGILLYGLASR [QARS1_Y57] 0.79
RRVLVYGDRGA [QDPR_Y16_G18D] 0.309
RRVPVYGGRGA [QDPR_Y16_L14P] 0.346
AASHRYDLGGL [QPRT_Y162] 0.787
TTPYNYSYIFK [RAB14_Y8_A4T] 0.981
TAPFNYSFIFK [RAB14_Y8_YF] 0.575
SFLFHYADDSF [RAB3C_Y50_R49H] 2.15
SLMNQYVNKKF [RAB7A_Y28] 0.565

Biological target: SHP2 N-SH2 domain T42A
Assay: as above
Conditions: peptide library: pTyr-Var

Enrichment score, inactive:
PLGVLYKVKVF [PTS_Y128_V124L_YF] 1.25
PVGVLYKVKVF [PTS_Y128_YF] 1.14
IVEYAYNDKAI [PUM3_Y259] 1.02
IVEYAYNDKAV [PUM3_Y259_I264V] 0.749
IVEFAYNDKAV [PUM3_Y259_I264V_YF] 0.612
ENRKYYMDLKE [PURA_Y156] 0.621
ENRKFYMDLKE [PURA_Y156_YF] 0.821
HTLIKYTDGDQ [PUS7L_Y94] 0.701
HTLMKYTDGDQ [PUS7L_Y94_I92M] 0.706
ISRVLYPNDNF [PYGM_Y281] 0.996
TGILLYGLASR [QARS1_Y57] 0.567
RRVLVYGDRGA [QDPR_Y16_G18D] 0.339
RRVPVYGGRGA [QDPR_Y16_L14P] 0.281
AASHRYDLGGL [QPRT_Y162] 0.624
TTPYNYSYIFK [RAB14_Y8_A4T] 2.61
TAPFNYSFIFK [RAB14_Y8_YF] 1.21
SFLFHYADDSF [RAB3C_Y50_R49H] 2.11
SLMNQYVNKKF [RAB7A_Y28] 0.473

Biological target: SHP2 N-SH2 domain T52S
Assay: as above
Conditions: peptide library: pTyr-Var

Enrichment score, inactive:
PLGVLYKVKVF [PTS_Y128_V124L_YF] 0.581
PVGVLYKVKVF [PTS_Y128_YF] 1.44
IVEYAYNDKAI [PUM3_Y259] 0.909
IVEYAYNDKAV [PUM3_Y259_I264V] 0.825
IVEFAYNDKAV [PUM3_Y259_I264V_YF] 0.922
ENRKYYMDLKE [PURA_Y156] 0.673
ENRKFYMDLKE [PURA_Y156_YF] 1.07
HTLIKYTDGDQ [PUS7L_Y94] 1.09
HTLMKYTDGDQ [PUS7L_Y94_I92M] 0.715
ISRVLYPNDNF [PYGM_Y281] 1.26
TGILLYGLASR [QARS1_Y57] 0.881
RRVLVYGDRGA [QDPR_Y16_G18D] 0.291
RRVPVYGGRGA [QDPR_Y16_L14P] 0.338
AASHRYDLGGL [QPRT_Y162] 0.752
TTPYNYSYIFK [RAB14_Y8_A4T] 0.833
TAPFNYSFIFK [RAB14_Y8_YF] 1.09
SFLFHYADDSF [RAB3C_Y50_R49H] 2.16
SLMNQYVNKKF [RAB7A_Y28] 0.627

Biological target: SHP2 N-SH2 domain wild-type
Assay: as above
Conditions: peptide library: pTyr-Var

Enrichment score, inactive:
PLGVLYKVKVF [PTS_Y128_V124L_YF] 1.52
PVGVLYKVKVF [PTS_Y128_YF] 1.46
IVEYAYNDKAI [PUM3_Y259] 1.1
IVEYAYNDKAV [PUM3_Y259_I264V] 0.948
IVEFAYNDKAV [PUM3_Y259_I264V_YF] 0.941
ENRKYYMDLKE [PURA_Y156] 0.832
ENRKFYMDLKE [PURA_Y156_YF] 1.06
HTLIKYTDGDQ [PUS7L_Y94] 1.14
HTLMKYTDGDQ [PUS7L_Y94_I92M] 1.02
ISRVLYPNDNF [PYGM_Y281] 1.1
TGILLYGLASR [QARS1_Y57] 0.794
RRVLVYGDRGA [QDPR_Y16_G18D] 0.288
RRVPVYGGRGA [QDPR_Y16_L14P] 0.16
AASHRYDLGGL [QPRT_Y162] 0.85
TTPYNYSYIFK [RAB14_Y8_A4T] 0.756
TAPFNYSFIFK [RAB14_Y8_YF] 0.645
SFLFHYADDSF [RAB3C_Y50_R49H] 2.09
SLMNQYVNKKF [RAB7A_Y28] 0.699
